Screen size: about 150,000 compounds; about 540 (0.36%) showed an effect of 50% or more. The list shows a part of the results.
The compounds below were run on Plasmodium falciparum (assay: Primary screen in NF54 nanoGlo assay, in single point, at 2uM, 72h; a lower Z score goes with more inhibition). Details: timepoint 72 hour.
Assay type: functional, Erythrocyte
CCOc1ncccc1CN[C@H]1CCCN(CC)C1 was tested, and the “% Inhibition” value was -10% and the Z score was 1.15.
O=C(NC1CC(O)C(CO)C1)c1cc2ccccc2o1 (stereo not given) was tested, and the “% Inhibition” value was -9% and the Z score was 1.45.
With CONC(=O)C=Cc1ccc2c(c1)CCCN2C the “% Inhibition” value was -13% and the Z score was 1.75.
In the case of O=C(Cn1ccnn1)N[C@H]1C[C@@H](c2cc(N3CC[C@H](O)C3)ncn2)C1, the “% Inhibition” value is reported as 0% and the Z score is reported as 0.01.
With CN1C(=O)N(c2ccsc2)C(=O)C1(C)C the “% Inhibition” value was -7% and the Z score was 1.27.
With O=C(NCCOc1ccc(Cl)cn1)NCC1CCOCC1 the “% Inhibition” value was -7% and the Z score was 0.93.
With O=C(NCc1ccccc1OC1CCC1)c1nc(=O)[nH][nH]1 the “% Inhibition” value was -2% and the Z score was 0.38.
O=C(CN1CCC(c2ccc(F)c(F)c2)CC1)N1CCOCC1 was tested, and the “% Inhibition” value was -8% and the Z score was 1.24.
With C[C@@]1(NC(=O)C2CC(F)(F)C2)CC=CCC1 the “% Inhibition” value was -11% and the Z score was 2.24.
For O=C(NCC1(Cn2ccnc2)CC1)N1CCCC[C@@H]1CO, the “% Inhibition” value was -5% and the Z score was 0.96.
In the case of COC(=O)Cn1cc(CNC(=O)c2cc3c(C)cc(C)cc3[nH]2)nn1, the “% Inhibition” value is reported as -3% and the Z score is reported as 0.42.
For Cc1noc(CN2CCC(N3CCN(c4cccc(C(F)(F)F)c4)CC3)CC2)n1, the “% Inhibition” value was -2% and the Z score was 0.23.
Cc1cc(C(=O)NCC[C@H]2CCOC2)c(=O)n(C)c1C was tested, and the “% Inhibition” value was -5% and the Z score was 0.72.
With CC(C)Cc1cc(C(=O)O[C@H]2CCc3cccnc32)[nH]n1 the “% Inhibition” value was -4% and the Z score was 0.45.
In the case of CNC(=O)[C@@H]1C[C@H](Oc2ccccc2)CN1C1CCN(C(=O)COCCOC)CC1, the “% Inhibition” value is reported as 1% and the Z score is reported as -0.19.
For Cc1nc([C@H](C)Nc2ccc3cc[nH]c3n2)cs1, the “% Inhibition” value was 2% and the Z score was -0.41.
In the case of CC1CC(C(=O)N2CCC(Cc3ccccc3)CC2)CCC1=O (stereo not given), the “% Inhibition” value is reported as -12% and the Z score is reported as 1.22.
With CC(=O)c1ccc(S(=O)(=O)NC(=O)c2cncc(N3CCOCC3)c2)cc1 the “% Inhibition” value was -5% and the Z score was 0.63.
With CCCCOCC(=O)Nc1cc(C(C)(C)C)no1 the “% Inhibition” value was -5% and the Z score was 0.97.
COc1ccccc1[C@@H](CC(N)=O)c1c(O)n[nH]c1Cc1ccc2c(c1)CCO2 was tested, and the “% Inhibition” value was 1% and the Z score was -0.1.
In the case of Cc1ccc(Cl)c2ccc(N3CCS(=O)(=O)CC3)nc12, the “% Inhibition” value is reported as -6% and the Z score is reported as 0.85.
COc1ccc(-c2nnc(C)o2)cc1NC(=O)c1ccc(=O)n(C)c1 was tested, and the “% Inhibition” value was -18% and the Z score was 2.02.
In the case of CC(=O)N1CCc2cc(NS(=O)(=O)c3ccc4c(c3)OCCO4)ccc21, the “% Inhibition” value is reported as -1% and the Z score is reported as 0.14.
In the case of Cc1ccc(C)c(/N=C2\CCCN2C)c1C#N, the “% Inhibition” value is reported as 29% and the Z score is reported as -3.28.
In the case of CCc1nn(C)c(NC(=O)c2ccc(CN3CCNC(=O)[C@@H]3C)cc2)c1CC, the “% Inhibition” value is reported as -3% and the Z score is reported as 0.38.
CO[C@@H](CNS(=O)(=O)CC(C)(F)F)c1ccccc1Cl was tested, and the “% Inhibition” value was -2% and the Z score was 0.35.
With Cc1ccc2nc(NC(=O)CCn3ccc(C)n3)sc2c1 the “% Inhibition” value was 5% and the Z score was -0.95.
In the case of CN(C)C1(CNC(=O)Nc2cc(-c3cc(F)cc(F)c3)nn2C)CC1, the “% Inhibition” value is reported as -9% and the Z score is reported as 1.46.
For CC[C@](O)(CCCO)CNC(=O)c1cccc(N)n1, the “% Inhibition” value was -9% and the Z score was 1.03.
In the case of CCCCN=C(NCCc1ccc(F)cc1)N1CCC(O)CC1, the “% Inhibition” value is reported as 0% and the Z score is reported as -0.03.
In the case of COc1ccc(N2C(=O)[C@H]3C(c4cn(C)nc4C)=NO[C@H]3C2=O)cc1, the “% Inhibition” value is reported as -5% and the Z score is reported as 0.6.
With CC(C)(C)c1nc(CN2CCN(C(=O)NC3CC3)CC2)cs1 the “% Inhibition” value was -3% and the Z score was 0.32.
In the case of CCOCCN1C[C@@](C)(Cc2ccc3c(c2)OCO3)CCC1=O, the “% Inhibition” value is reported as -18% and the Z score is reported as 2.47.
CN1CCCC(CNC(=O)Cc2cscn2)C1c1ccc(C(F)(F)F)cc1 (stereo not given) was tested, and the “% Inhibition” value was -1% and the Z score was 0.15.
COc1ccc2c(c1)[C@H](C)N(C(=O)c1cccc(-c3nc(C)nn3C)c1)CC2 was tested, and the “% Inhibition” value was -2% and the Z score was 0.29.
Cc1cc(CN(CC(=O)O)Cc2ccc(F)c(F)c2)on1 was tested, and the “% Inhibition” value was 6% and the Z score was -1.17.
With Cc1cnn(Cc2nnnn2-c2ccccc2)c1 the “% Inhibition” value was -7% and the Z score was 1.26.
With CCc1cc(N2CCOC[C@](O)(CN3CCCC3)C2)nc(N2CCCC2)n1 the “% Inhibition” value was 3% and the Z score was -0.37.
With Cc1onc(C(=O)N[C@@H]2COCC[C@@H]2OCC2CCC2)c1CO the “% Inhibition” value was -1% and the Z score was 0.11.
CC(C)N(CCO)c1ccc(-c2nc(-c3ccccc3F)no2)cn1 was tested, and the “% Inhibition” value was -2% and the Z score was 0.35.
In the case of CS(=O)(=O)NCCC(=O)N1CC[C@H]1c1ccc(F)cc1, the “% Inhibition” value is reported as -7% and the Z score is reported as 0.91.
For O=C(NCC1CCCC1O)Nc1ccccn1 (stereo not given), the “% Inhibition” value was 6% and the Z score was -0.94.
With CC(=O)Nc1c(C)cc(NCc2ccc(-c3cccc(F)c3C)o2)cc1C the “% Inhibition” value was 3% and the Z score was -0.56.
With CCc1cccc(OCCN(C)[C@H]2CN(Cc3ncc[nH]3)C[C@@H]2O)c1 the “% Inhibition” value was -6% and the Z score was 0.75.
O=C(O)[C@@H]1CCCN1S(=O)(=O)c1ccc(Br)c2ccccc12 was tested, and the “% Inhibition” value was -10% and the Z score was 1.27.
Cc1nscc1-c1nc(C2(c3ccncc3)CCC2)no1 was tested, and the “% Inhibition” value was 2% and the Z score was -0.28.
C[C@@H](CC(=O)N1CCN(c2ncc[nH]2)CC1)c1cnn(C)c1 was tested, and the “% Inhibition” value was -1% and the Z score was 0.11.
CCN(CC)c1ccc(NC(=O)CCn2ccn3nc4c(c3c2=O)CCCC4)c(C)c1 was tested, and the “% Inhibition” value was 7% and the Z score was -0.63.
CCOC(=O)N1CCC(N2C[C@@]34C=C[C@@H](O3)[C@H](C(=O)Nc3ccc(C)cc3)[C@@H]4C2=O)CC1 was tested, and the “% Inhibition” value was -13% and the Z score was 1.96.
In the case of CCc1cc(CN2CCC3(CC2)CCN(Cc2ccoc2)C[C@@H]3CO)[nH]n1, the “% Inhibition” value is reported as -6% and the Z score is reported as 1.1.
With CCN1CCC(NC(=O)Cc2cn(-c3ccccc3)nc2-c2ccc(Cl)cc2)CC1 the “% Inhibition” value was 1% and the Z score was -0.15.
In the case of O=C(Nc1c(-c2ccc3c(c2)OCO3)n[nH]c1C1CC1)c1ccccc1F, the “% Inhibition” value is reported as -2% and the Z score is reported as 0.32.
In the case of c1cc(-c2noc(C3CCN(c4ccc5nncn5n4)CC3)n2)ccn1, the “% Inhibition” value is reported as 10% and the Z score is reported as -1.14.
In the case of Cc1ccc(-n2ccnc2)c(C(=O)N2CCN(CC3CC3)CC2)c1, the “% Inhibition” value is reported as -18% and the Z score is reported as 1.49.
For COC(C)c1cccc(NC(=O)NC(C)C2CCC(F)(F)CC2)c1 (stereo not given), the “% Inhibition” value was 3% and the Z score was -0.37.
